Several values for one entry are separate records, joined by “and”; a condition that tells them apart may be missing. Equal values may be shown once. Hit rate of the full screen: of about 340,000 compounds, about 6,900 (2%) were called active. Cut-off read from the data, not from the text of the source: active = inhibition above about 30%; inactive = below that, where a call was filed. This is a selection; strong and weak results do not stand in their true shares. Where no call is shown, the source filed none.
Molecular target: D(2) dopamine receptor (Homo sapiens) (UniProt P14416)
Assay: HTS Assay for Allosteric Antagonists of the Human D2 Dopamine Receptor: Primary Screen for Antagonists; note: 0% is about no effect
Conditions: HEK293 TREx D2 cells, calcium flux, dopamine EC80; at 10 µM; stronger effect = higher value
Summary of the method: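 Cells plated overnight at 30 C with tetracycline; no-wash calcium dye, 30–90 min RT; 10 s baseline; compound pinned; 180 s read; EC80 dopamine added; another 180 s read.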

UniProt P14416, sequence (P14416 whole entry, looked up): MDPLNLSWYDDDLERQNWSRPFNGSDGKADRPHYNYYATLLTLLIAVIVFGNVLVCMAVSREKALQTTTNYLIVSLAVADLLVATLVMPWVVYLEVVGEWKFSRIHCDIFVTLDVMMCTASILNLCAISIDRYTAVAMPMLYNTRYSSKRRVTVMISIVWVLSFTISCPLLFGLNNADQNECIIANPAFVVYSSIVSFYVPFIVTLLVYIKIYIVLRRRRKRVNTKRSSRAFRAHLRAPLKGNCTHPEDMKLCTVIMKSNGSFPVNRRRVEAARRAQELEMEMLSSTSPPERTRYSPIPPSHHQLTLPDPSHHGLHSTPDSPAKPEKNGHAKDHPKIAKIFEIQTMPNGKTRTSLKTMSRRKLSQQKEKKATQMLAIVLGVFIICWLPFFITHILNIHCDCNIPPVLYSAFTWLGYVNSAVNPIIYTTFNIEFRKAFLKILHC

Structure (SMILES) | inhibition
CC(=O)N1CCc2cc(S(=O)(=O)CCC(=O)N3CCN(c4ccccc4F)CC3)ccc21 | 20.5%
Cc1cc(Nc2ccc(Cl)cc2)n2cnnc2n1 | -10.8%
COc1ccccc1Cc1nc2ccccc2nc1SCC(=O)N1CCCc2ccccc21 | 13.3%
Cc1ccccc1-c1noc(-c2cc(C(C)C)[nH]n2)n1 | -12%
COc1ccc(Cl)cc1NC(=O)c1c(NCc2cccs2)sc2c1CCCC2 | 3.89%
Cc1cccc(-n2ncc(C(=O)Nc3ccc4c(c3)OCO4)c2C2CCN(C(=O)OC(C)(C)C)CC2)c1 | -1.84%
Cc1ccc(S(=O)(=O)Nc2c(C)nc3nc(C)[nH]n3c2=O)c(C)c1 | -15.2% and active: 35.5%
Oc1ccc(NCc2ccccc2OCc2ccccc2Cl)cc1 | 5.7%
Cc1ccc(COc2cccc3cc(-c4noc(-c5ccc(C)cc5)n4)c(=O)oc23)cc1 | 16.8%
Cc1ccc(C(=O)c2oc3ccccc3c2NC(=O)COc2ccc(C(C)(C)C)cc2)cc1 | 1.51%
Cc1ccc(NC(=O)Cn2cnc3c(oc4ccccc43)c2=O)cc1 | -4.34%
CC(C)C(=O)c1cc2c(cc1NC(=O)c1ccccc1F)OCCO2 | 8.61%
COC(=O)c1ccc(NC(=O)CSc2nc3c(c(=O)n(C)c(=O)n3C)n2Cc2ccccc2)cc1 | -7.28%
COc1ccc(C(=O)NCc2nnc(SCC(=O)Nc3ccc(F)cc3)n2-c2ccccc2)cc1 | -14.3%
Cc1ccc(Cn2c(C)c3cnn(CC(=O)N4CCN(c5ccc(F)cc5)CC4)c(=O)c3c2C)cc1 | -12%
O=C(/C=C/c1ccccc1)N1CCN(Cc2cc(=O)n3nc(-c4ccccc4Cl)sc3n2)CC1 | 9.76%
COc1cc(OC)c(NC(=O)c2cn(C)c(=O)c3cc(OC)c(OC)cc23)cc1Cl | 0.108%
Cc1ccc(O)c(NC(=O)CCSc2nc(-c3ccco3)cc(C(F)(F)F)n2)c1 | 10.3%
COc1ccc(Cl)cc1NS(=O)(=O)c1c(C)[nH]c(=O)[nH]c1=O | -3.5%
O=C(CN1C(=O)C2(SCC(=O)N2c2ccc(Cl)cc2)c2ccccc21)NCCc1ccccc1 (centres undefined) | 0.151%
CC1Cn2cc(C(=O)Nc3ccccc3C(F)(F)F)c(=O)c3c(Cl)ccc(c32)O1 (centres undefined) | 22%
CC(C)Oc1ccc(C(=O)Nc2nc3c(s2)CC(C(C)(C)C)CC3)cc1 (centres undefined) | -3.23%
O=C(NCC(c1ccc2c(c1)OCO2)N1CCN(c2ccccc2)CC1)c1ccccc1 (centres undefined) | -17%
Cc1oc2ncn(CC(C)C)c(=O)c2c1C(=O)N(Cc1ccccc1)C(C)C | -8.82%

Structure (SMILES) | inhibition
Cc1nc2nc(C(F)(F)F)[nH]n2c(=O)c1Cc1ccccc1 | 7.9%
CCOC(=O)c1nnn(CC(=O)NC(=O)Nc2ccc(F)cc2)c1C(=O)OCC | -3.44%
COc1ccc(CNC(=O)c2ccc3c(c2)N(Cc2ccccc2)CCS3)cc1 | 3.48%
Cc1[nH]n2c(=O)cc(Cc3ccccc3)nc2c1C#N | active: 41.6%
Cc1ccccc1C(=O)Nc1ccc2oc(-c3ccc(Cl)c(Cl)c3)nc2c1 | -4.91%
CCc1cccc(NC(=O)c2cccc3c2C(=O)N(C2CCCCC2)C3)c1 | -2.1%
O=C(NCC(c1cccnc1)N1CCc2ccccc21)C(=O)Nc1ccccc1F (centres undefined) | 28.2%
COc1nnc(-c2ccc(N3CCCCC3)c(NC(=O)c3ccccc3)c2)c2ccccc12 | -4.97%
COc1ccc(Nc2ncnc3c2nc2n3CCCC2)cc1Cl | -0.366%
CC(NC(=O)c1cc(-c2ccc(Cl)cc2)on1)c1ccccc1 (centres undefined) | -10.7%
CCOC(=O)c1c(C)n(S(=O)(=O)c2ccc(C)cc2)c2ccc(NS(=O)(=O)c3ccc(C)cc3)cc12 | -13.1%
Cc1cc(Nc2cccc(C(F)(F)F)c2)nc2ccc(NC(=O)c3cccnc3)cc12 | 16.3%
CCOC(=O)c1c(C)oc2nc(C)nc(N3CCN(c4cccc(C)c4C)CC3)c12 | 6.04%
O=C(O)c1c2c(nc3ccc(S(=O)(=O)N4CCC(C(=O)NCc5ccc(Cl)cc5)CC4)cc13)CCCC2 | 6.93%
COc1cccc(CNC(=O)Cn2c(SCC(=O)Nc3ccc(C)c(C)c3)nc3ccccc32)c1 | 3.62%
CCCCCOc1ccc(NC(=O)Cn2c(-c3cncs3)nc3ccccc32)cc1 | 8.56%
COc1cc(/C=C/c2nc3cc(Cl)ccc3c(=O)n2-c2ccc(C)cc2C)cc(OC)c1OC | 2.54%
COc1ccc(S(=O)(=O)NCC(c2ccco2)N2CCN(c3ccccc3F)CC2)cc1C (centres undefined) | 18.3%
CSc1ccc(NC(=O)Cn2nnnc2-c2ccccc2F)cc1 | 1.77%
Cc1ccc(NC(=O)C2CCCN(S(=O)(=O)c3c(C)nn(C)c3C)C2)c(C)c1 (centres undefined) | 4.52%
CCOc1ccc(C2C(C(N)=O)=C(C)Nc3nc(-c4cccc(Cl)c4)nn32)cc1OC (centres undefined) | 14.9%
Cc1cc(C)c(C#N)c(SCS(=O)Cc2ccc(Cl)cc2)n1 (centres undefined) | active: 36.7%
CCOC(=O)N1CCN(Cc2nc3cc(NC(=O)c4ccc([N+](=O)[O-])cc4)ccc3n2C(C)C)CC1 | -18.5%
Cc1cccc(OCCSc2nc3ccccc3n2CC(=O)N2CCOCC2)c1C | -3.61%

Structure (SMILES) | inhibition
CCOc1ccc(S(=O)(=O)Nc2ccc(OC)c(Cl)c2)c2cccnc12 | 11.9%
O=S(=O)(Nc1cccc(-c2ccc(N3CCCC3)nn2)c1)c1cc(F)ccc1F | 1.89%
Cc1ccccc1C(=O)O/N=C(\c1ccccc1)c1ccccn1 | active: 72.4%
COc1ccc(NC(=O)N2CCN(Cc3nc4ccc(C)cc4o3)CC2)cc1OC | 0.864%
CCCCNC(=O)CN1CCN(c2ccc(NC(=O)c3ccc(OC)cc3)cc2C(=O)O)CC1 | 12%
COc1ccc(-c2c(C#N)c(SCC(=O)Nc3ccc(C)c(C)c3)nc(C)c2C(=O)Nc2ccccc2)cc1OC | -1.5%
COc1ccc(C)cc1NS(=O)(=O)c1ccc2c(c1)CCCN2C(C)=O | -0.309%
COCCN1CC(O)=C(c2nc3ccccc3c(=O)[nH]2)C1=N | active: 38.2%
Cc1ccc(S(=O)(=O)NCC(=O)OC(C)C(=O)c2ccccc2)cc1 (centres undefined) | active: 30.9%
O=C1C=C(Nc2ccc(Cl)cc2)CC(c2ccc(Cl)cc2)C1 (centres undefined) | active: 47.7%
Cc1cc(C)n(-c2ccc(C(=O)OCC(=O)N(CC(C)C)C3CCS(=O)(=O)C3)cc2)n1 (centres undefined) | active: 51.5%
COc1ccc(-c2nc(SCC(=O)NCC3CCCO3)c(-c3ccc(C)cc3)[nH]2)cc1OC (centres undefined) | 17.6%
CCOC(=O)Cn1c(=N)n(CCOc2ccc(OC)cc2)c2ccccc21 | 0.223%
Cc1cccc(-n2c(=O)c3c(c4cc(C)ccc4n3C)n(CC(=O)Nc3ccc(C)c(C)c3)c2=O)c1 | -1.99%
CC(C)(C)NC(=O)Cn1cc(S(=O)(=O)Cc2ccccc2Cl)c2ccccc21 | -4.14%
COc1ccccc1N1CCN(c2c3c(nc4nncn24)CCC3)CC1 | 12.5%
Cc1cccc(NC(=O)Cn2c(=O)n(Cc3nc(-c4ccccc4)no3)c(=O)c3ccccc32)c1 | 6.1%
Cc1ccc(Oc2cc([N+](=O)[O-])cc3c2C(=O)Nc2ccccc2O3)cc1 | active: 30.1%
COc1ccc(CNC(=O)C2CCN(C(=O)N3CCOc4ccc(C)cc43)CC2)cc1 | 2.44%
O=C(NCc1ccc(Cl)cc1)c1cc2cccc3c2n1CCS3 | 15.1%
CC1CCCN(C(=O)c2ccc(CSc3nc4ccncc4n3Cc3ccccc3)cc2)C1 (centres undefined) | 10.5%
CCc1cc(C(=O)N2CCN(c3ccccc3)CC2)no1 | 7.76%
COc1cccc(CNC(=O)C2CCCN(c3nn4cc(-c5ccc(C)cc5)nc4s3)C2)c1 (centres undefined) | 4.51%
Cc1ccccc1CN1C(=O)C(O)(c2c[nH]c3ccccc23)c2cc(Cl)ccc21 (centres undefined) | 0.312%

Structure (SMILES) | inhibition
O=c1c2sc3ccccc3c2n(Cc2cccc(Cl)c2)c(=O)n1Cc1ccc(F)cc1 | 1.74%
Cc1cc(C)c(NC(=O)Cn2nnc3sc4c(c3c2=O)CCC(C(C)(C)C)C4)c(C)c1 (centres undefined) | -0.19%
CCCCN1C(C(=O)c2ccccc2)=C(OC(=O)CC)c2ccccc2S1(=O)=O | 7.35%
COc1cc(C2c3c(-c4ccccc4O)n[nH]c3C(=O)N2Cc2ccncc2)cc(OC)c1OC (centres undefined) | 7.49%
O=C(CCCc1nc(-c2ccc(Cl)cc2)no1)NCc1ccco1 | -9.02%
CC1CCN(S(=O)(=O)c2ccc3c(c2)N(CC(=O)N(C)Cc2ccccc2)C(=O)CO3)CC1 | 1.45%
CCN(CC)c1cc(NC2CCCCC2)c2c3c(onc13)-c1ccccc1C2=O | 6.95%
Cn1cnc(S(=O)(=O)N2CCC(C(=O)Nc3ccc(OC(F)(F)F)cc3)CC2)c1 | -5.07%
CCCCN(CC)CCCNC(=O)c1ccc2c(c1)N(Cc1ccc(C)cc1)C(=O)c1ccccc1S2 | -19%
CCOc1ccc(C(=O)c2cn(CC(=O)Nc3ccc(C)c(Cl)c3)c3ccc(OCC)cc3c2=O)cc1 | 8.41%
COc1cc(NC(=O)COCc2cc(-c3ccc4c(c3)OCO4)on2)c(OC)cc1Cl | 10.6%
CC(=O)c1ccc(NC(=O)Cn2c(=O)nc(-c3ccccc3)c3ccccc32)cc1 | 6.32%
CCCCC(=O)OCc1cc(=O)n2nc(C3CC3)sc2n1 | -11.4%
O=C(NC1(C(F)(F)F)N=C(c2ccccc2)N(Cc2ccccc2)C1=O)c1ccc(F)cc1 (centres undefined) | 7.59%
CCOc1ccc(CCNC(=O)c2cc3n(n2)CCCN(Cc2ccc(C)cc2)C3=O)cc1OCC | -5.16%
Cc1cc(-c2ccc(C)c(S(=O)(=O)Nc3ccc(C)c(N(C)C)c3)c2)on1 | 13.6%
Cc1nnc(N2CCCC(C(=O)Nc3cc(F)ccc3F)C2)c2nn(-c3ccccc3)c(C)c12 (centres undefined) | -25.2%
CC1CCN(c2nc3ccccc3nc2SCC(=O)Nc2ccccc2C(C)C)CC1 | 1.69%
CCCN1CCN(c2ncnc3sc(C(=O)Nc4ccc(OC(F)(F)F)cc4)c(C)c23)CC1 | -6.72%
CC(C)NC(=O)C1=CC(c2ccc3c(c2)OCO3)=NS(=O)(=O)N1C | 9.11%
COc1ccccc1CNC(=O)c1cc2cccc3c2n1CCS3 | 2.42%
Cc1sc(NC(=O)C2c3ccccc3Oc3ccccc32)c(C(=O)OC(C)C)c1C | -2.53%
